Test results reported in PubChem BioAssay (NCI).
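48-hour exposure; five concentrations; linearly interpolated endpoints. GI50: concentration for 50% inhibition of growth. TGI marks complete inhibition of growth.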

test system: NCI-H322M lung; experiment: NCI anticancer screen, dose series, 48 h

Which results are given for `Cc1ccc(C(=O)Nc2ccc(CNCCN3CCNCC3)c(C(F)(F)F)c2)cc1C#Cc1cnc2cccnn12`?
GI50: 1.85 µM; TGI: 3.6 µM

For `NC(N)=Nc1ccc(Oc2cccc(NC(N)=Nc3ccc(Cl)c(C(F)(F)F)c3)c2)cn1`, which GI50 is on record?
The GI50 was 1.69 µM.

And the TGI?
Its TGI is 3.85 µM.

Which results are given for `O=C(CNc1nc(-c2cccc([N+](=O)[O-])c2)cs1)Nc1cccc([N+](=O)[O-])c1`?
GI50: 2.32 µM; TGI: 6.03 µM

With `COc1cc(-c2ccc3ncnc(NCc4ccccc4)c3c2)cnc1OC` as the compound, how does the GI50 read?
The GI50 was 2.77 µM.

And the TGI?
The TGI was 25.5 µM.
